# From ChEMBL document CHEMBL4888484, “Replenishing the malaria drug discovery pipeline: Screening and hit evaluation of the MMV Hit Generation Library 1 (HGL1) against asexual blood stage Plasmodium falciparum ,using a nano luciferase reporter read-out” (2022)
# The campaign covered roughly 150,000 compounds. About 540 (0.36%) showed an effect of 50% or more. Some of the results follow.
# Test system: Plasmodium falciparum
# Assay: Primary screen in NF54 nanoGlo assay, in single point, at 2uM, 72h; a lower Z score goes with more inhibition
# Type: functional, Erythrocyte
# Details: timepoint 72 hour
SMILES,% Inhibition [%],Z score
Cc1[nH]c(=O)c(C#N)c(C)c1CCC(=O)N1CCO[C@@H](C)C1,1,-0.07
O=C1CC(C2CCCCN2C(=O)c2ccc(-c3nc(C4CC4)no3)cc2)CN1 (stereo unspecified),-12,1.51
CC(C)CC1NC2(CCN(C(=O)c3ccccc3)CC2)N(C(C)c2ccccc2)C1=O (stereo unspecified),-6,1.08
O=C(Cc1nc2ccccc2c(=O)[nH]1)c1c[nH]c2ccccc12,19,-2.47
Cc1cnccc1CC(=O)N[C@H](C#N)C(C)(C)C,-7,0.97
Cc1ccc([C@H](C)NS(=O)(=O)N2CCCC2)cn1,-8,1.19
CCN1C(=O)c2cccc3c(NC(=O)c4ccc(-c5nc6ccccc6s5)s4)ccc1c23,-5,0.85
COc1ccc(-n2cc(-c3ccccc3)nc2NC(=O)CN(CC(C)C)S(=O)(=O)c2ccc(Cl)cc2)cc1OC,-6,0.88
CCn1ccnc1Cn1ccnc1-c1ccc(N(C)C)nc1,10,-1.83
CCCn1cnnc1CN(C)Cc1nccn1-c1ccc(OC)cc1,-15,2.29
CCN(CC)C1=Nc2ccccc2Oc2ccc(NC(=O)c3cccc(F)c3)cc21,4,-0.64
COc1cc(OC)nc(C(=O)N2CC[C@H](Cc3nccs3)C2)n1,-6,0.95
CC1(C)Oc2cc(S(=O)(=O)NC3CCCCC3)ccc2NC1=O,33,-4.4
COC(=O)CN1C(=O)CCn2nc(-c3ccc(C)cc3)cc21,-12,1.59
CCCCN(C)C(=O)c1cn2ccnc(-c3ccccc3)c2n1,31,-3.56
Cn1ccnc1COc1c(F)cccc1F,-6,0.71
CCCC1(CCC)C(=O)N(CCC#N)C(=O)N1CCC#N,-15,2.01
C[C@@H](c1ccccc1)N(C)C(=O)C(=O)Nc1cnn(-c2ccncc2)c1,3,-0.42
O=C(NC1CCOCC1)NC1CCOC(C2CC2)C1 (stereo unspecified),-11,1.68
Cc1cc(NC(=O)Nc2nc3c(s2)CCCC3)[nH]n1,-28,3.27
COc1ccccc1CC(=O)NCc1cncc(-c2ccoc2)c1,19,-2.44
C[C@H](NC(=O)c1ccc2[nH]c3c(c2c1)CCCC3)C1CCN(CC(F)(F)F)CC1,-6,0.95

SMILES,% Inhibition [%],Z score
O=C(NCCc1ccccn1)c1cccs1,29,-3.32
CCOC(=O)[C@@](NC(=O)CC)(N1CCc2ccccc2C1)C(F)(F)F,32,-3.62
Cn1nc2c(c1NS(=O)(=O)c1cscc1C(F)F)CCC2,-2,0.29
COc1ccc2c(c1)CCc1c(C(=O)N3CCN(c4ccccc4F)CC3)n[nH]c1-2,-23,2.02
COc1cccc(Cn2c(Oc3ccc(-c4ccccc4)cc3)nc3c2c(=O)n(C)c(=O)n3C)c1,5,-0.65
COc1cccc(CCN2C(=O)CC[C@@H]3CN(C(=O)c4ccc(C(F)(F)F)cc4)CC[C@@H]32)c1,-14,2.1
O=C(Nc1ccc(F)cc1)c1nnc([C@H]2CCCN(S(=O)(=O)c3ccc(F)c(Cl)c3)C2)s1,-1,0.19
CCOC(=O)c1cc(C2CC2)nc2c1c(=O)n(CC(=O)NC1CCCCC1)c(=O)n2C,-3,0.42
CCN(Cc1nc(COC)no1)C(=O)CN1CCCCCC1=O,-8,1.68
COCC1(C(=O)N(C)[C@@H](C)c2cc3ccccc3[nH]2)CCC1,4,-0.83
COc1ccc(S(=O)(=O)N2CCN(Cc3nonc3C)CC2)cc1,-6,0.78
Cc1ccccc1C(=O)N1CCC2(CC1)OC[C@@H](C(=O)NCc1ccccn1)N2C(=O)c1cccc(F)c1,-6,0.8
O=C(NCc1cccnc1N1CCN(c2ccccn2)CC1)c1ccccn1,-11,1.62
CCCC[C@H](CC)CC(=O)Nc1nnn[nH]1,-5,0.58
CCNC(=O)C1(CNCc2c(C)nc3scc(C4CC4)n23)CCC1,-9,1.19
COCCn1ccc2cc(C(=O)N3CCc4nc[nH]c4C3)ccc21,1,-0.14
O=C(NC1CCN(C2CC2)CC1)N1CCC2(CCCCC2)C1,31,-3.54
Cc1cc(Cl)ccc1C(=O)NC[C@H](C)c1nncn1C,-14,1.46
Cn1ncnc1[C@@H]1CCCN1C(=O)C1CCCCC1,-11,1.59
Cc1ccc(C(=O)N2CCN(C(=O)C3CCC3)[C@@H]3CS(=O)(=O)C[C@@H]32)cc1O,3,-0.45
O=C(Cc1ccc(S(=O)(=O)N2CCOCC2)s1)N1CCCc2ccccc21,-12,1.05
